Hit rate of the full screen: of about 52,000 compounds, about 1,700 (3.3%) were called active. Cut-off read from the data, not from the text of the source: active = survival mostly below about 52% (no sharp cut-off); inactive = mostly above about 56%. The list shows a part of the results.
test system: Wild type; assay: S. aureus survival, RN4220 and DeltatarO strains – OD600, teichoic acid synthesis inhibitors, primary screen (AID 463173); conditions: S. aureus RN4220 wild type/DeltatarO growth, OD600, 18 h, hits give low values, screened at 18.75 µg/mL (by protocol)

Row | Compound | survival
1 | COc1cc(OC)cc(C(=O)Nc2nc(-c3nnn(-c4ccc(F)c(Cl)c4)c3C)ns2)c1 | inactive: 73%
2 | CCN1CCN(C(=O)c2cccc(F)c2F)CC1 | inactive: 114%
3 | O=C(CSc1nc(-c2ccco2)nc2cc(=O)[nH]n12)Nc1ccccc1F | inactive: 63%
4 | CCN1C(=O)/C(=c2\s/c(=C3\Sc4ccc(OC)cc4N3C)c(=O)n2Cc2ccccc2)N(C)C1=S | inactive: 100%
5 | O=C(c1ccccc1Cl)N1CCN(CCc2ccccn2)CC1 | inactive: 85%
6 | COc1cccc(C(=O)Nc2ccccc2-c2nnc(-c3ccc(C(C)(C)C)cc3)o2)c1 | inactive: 71%
7 | COc1ccc2cc3cc(C(=O)Nc4ccccc4C)oc3nc2c1 | inactive: 117%
8 | COc1ccc(NC(=O)CSc2nc(C)cc(C)c2C(=O)Nc2cccc(C)c2)cc1 | inactive: 106%
9 | C[C@@H](NC(=O)CN(c1ccccc1)S(=O)(=O)N(C)C)c1ccccc1 | inactive: 82%
10 | CCCOC(=O)c1ccc(Nc2nc3ccccc3nc2-n2nc(C)cc2C)cc1 | inactive: 32%
11 | Cc1cccc(C)c1NC(=O)NC1(C(=O)N2CCCCC2)CCCCC1 | inactive: 102%
12 | CCOc1ccc(-c2cc(CCCC(=O)NCCc3ccc(OCC)c(OCC)c3)no2)cc1 | inactive: 83%
13 | Cc1ccc(NC(=O)Nc2ccc3nc(N4CCN(C)CC4)cc(C)c3c2)cc1C | inactive: 73%
14 | CCCCCCc1nnc(NC(=O)CC)s1 | inactive: 104%
15 | Cc1ccccc1NC(=O)c1ccc(F)c(S(=O)(=O)NC2CCCC2)c1 | inactive: 70%
16 | CCN1CCN(C(=O)c2ccc3c(c2)N(Cc2ccccc2F)C(=O)c2ccccc2S3(=O)=O)CC1 | inactive: 90%
17 | COc1cc(NS(=O)(=O)c2ccc(NC(=O)c3ccc(C(C)=O)cc3)cc2)nc(OC)n1 | inactive: 77%
18 | COc1ccc(NC(=O)c2sc3nc4c(cc3c2N)CCCCCC4)cc1Cl | inactive: 63%
19 | CCOC(=O)c1cccc(NC(=O)N2CC(CC)Oc3ccccc32)c1 (centres undefined) | inactive: 79%
20 | Cc1ccc(N2CCN(C(=O)c3c(C)oc4nc(C)nc(N5CCCC5)c34)CC2)c(C)c1 | inactive: 81%
21 | Cc1cccc(-n2ncc(C(=O)NCc3ccco3)c2C2CCN(C(=O)OC(C)(C)C)CC2)c1 | inactive: 81%
22 | Cc1cccc(CNC(=O)CCCN2C(=O)COc3ccc(C)cc32)c1 | inactive: 110%
23 | CCn1c(=O)c2cc(C(=O)N(C)c3cc(Cl)c(OC)cc3OC)sc2c2ccccc21 | inactive: 80%

Row | Compound | survival
24 | Cc1nc2cccnc2n1C1CCN(S(=O)(=O)c2ccc(C(C)C)cc2)CC1 | inactive: 127%
25 | CCc1nn(CC(=O)NCCN(CC)CC)c(=O)c2cc3occc3n12 | inactive: 125%
26 | O=C(CSc1ncc2c(n1)-c1ccccc1N(Cc1ccc(F)cc1)S2(=O)=O)NCc1ccccc1 | inactive: 76%
27 | Cc1ccc(S(=O)(=O)CCc2nc3ccccc3n2CCC#N)cc1 | inactive: 117%
28 | Cc1cn2c(=O)cc(COC(=O)c3cccc(NC(=O)COc4ccc(Cl)cc4)c3)nc2s1 | inactive: 99%
29 | COC(=O)c1c(NC(=O)COc2ccccc2Cl)sc2c1CCC(C(C)(C)C)C2 (centres undefined) | inactive: 128%
30 | Cc1ccc(CCNC(=O)c2cc3sccc3n2Cc2ccc(F)cc2)cc1 | inactive: 98%
31 | N#C/C(=C\c1ccc(Br)cc1)c1nc(-c2cc3cc(Br)ccc3oc2=O)cs1 | inactive: 69%
32 | CCOC(=O)c1sc(N2N=C(C)CC2=O)nc1C | inactive: 115%
33 | COC(=O)c1ccc(Cl)cc1NC(=O)N1CCC(CN2CCCC2)CC1 | inactive: 71%
34 | Cc1ccc(C(=O)c2cn(Cc3ccccc3F)c3cc4c(cc3c2=O)OCO4)cc1 | inactive: 88%
35 | O=C(NCc1cccs1)c1cc2sccc2n1Cc1ccccc1 | inactive: 84%
36 | COc1cc(/C=C(\C#N)c2nc3ccc(C)cc3[nH]2)ccc1OC(C)C | inactive: 79%
37 | CCc1ccc(S(=O)(=O)c2c[nH]c3cc(OC)c(OC)cc3c2=O)cc1 | inactive: 89%
38 | COc1ccc2cc3cc(C(=O)NCCc4ccccc4)sc3nc2c1Cl | inactive: 73%
39 | Cc1ccccc1NC(=O)Cn1c(=O)n(-c2ccc(CC(=O)NCC3CCCO3)cc2)c(=O)c2ccccc21 (centres undefined) | inactive: 90%
40 | COc1ccc(-c2cc(C(F)(F)F)nc(NCc3ccccc3)n2)cc1 | active: -5%
41 | CCn1nnc(NC(=O)COc2ccccc2)n1 | inactive: 113%
42 | COc1cccc(NC(=O)C(=O)NCC(c2ccc3c(c2)OCO3)N2CCOCC2)c1 (centres undefined) | inactive: 22%
43 | O=C(Cn1c(=O)n(-c2ccc(Cl)cc2)c(=O)c2sc3ccccc3c21)NC1CCCCC1 | inactive: 81%
44 | Fc1ccc(C(Nc2ccc(Cl)c(C(F)(F)F)c2)c2nnc(-c3ccccc3)o2)cc1 (centres undefined) | inactive: 82%
45 | COc1cc(OC)c(NC(=O)CCn2cccn2)cc1Cl | inactive: 71%
46 | CN(Cc1ccccc1)C(C(=O)NC1CCCCC1)c1ccc(Cl)cc1 (centres undefined) | inactive: 74%

Row | Compound | survival
47 | COc1cc(-c2noc(-c3ccc(N4CCOCC4)c([N+](=O)[O-])c3)n2)cc(OC)c1OC | inactive: 84%
48 | CCN(CCCNC(=O)CSc1cc(=O)n(C)c2cc(Cl)ccc12)c1cccc(C)c1 | inactive: 114%
49 | Cc1c2cnn(-c3ccccc3)c(=O)c2c(C)n1CC(=O)N1CCN(c2ccc(F)cc2)CC1 | inactive: 80%
50 | Cc1ccc(OCC(=O)N(Cc2ccco2)Cc2ccco2)cc1 | inactive: 78%
51 | COc1cccc(-c2nc(CS(=O)(=O)CC(=O)Nc3cc(F)ccc3F)c(C)o2)c1 | inactive: 61%
52 | O=C(NCCN1CCOCC1)Nc1c[nH]c2ccccc2c1=O | inactive: 115%
53 | Cc1ccc(NC(=O)CSc2nc3ccccc3c3nc(CCn4cncc4C)nn23)c(C)c1 | inactive: 70%
54 | CCc1ccc(C(=O)c2c(N)c(-c3nc(-c4ccc5c(c4)OCO5)cs3)c3ccccn23)cc1 | inactive: 100%
55 | Oc1c(C(c2ccc(Br)cc2)N2CCOCC2)sc2nc(-c3ccco3)nn12 (centres undefined) | inactive: 49%
56 | CCOc1cc(C(C#N)N2CCCCC2)ccc1OC (centres undefined) | inactive: 104%
57 | C1CCN(c2nc(N3CCCC3)nc(N3CCNCC3)n2)C1 | inactive: 118%
58 | CCS(=O)(=O)c1nc2ccccc2n1CC(=O)Nc1ccccc1C(=O)OC | inactive: 71%
59 | COc1ccc2nc3sc(C(=O)N4CCN(c5ccccc5)CC4)cc3cc2c1 | inactive: 91%
60 | COc1ccc(CCNC(=O)CCn2c(=O)c3ccccc3n(Cc3c(C)cc(C)cc3C)c2=O)cc1OC | inactive: 80%
61 | CN(C)c1ccc(C(CNC(=O)c2ccccc2F)N2CCc3ccccc32)cc1 (centres undefined) | inactive: 79%
62 | Cc1csc2nc(CCNS(=O)(=O)c3ccccc3)cn12 | inactive: 63%
63 | CC(C)CCNC(=O)CN1C(=O)c2cccnc2Oc2ccccc21 | inactive: 75%
64 | N#Cc1ccccc1S(=O)(=O)N1CCCC(c2nc3c(nnn3Cc3cccc(Cl)c3)c(=O)[nH]2)C1 (centres undefined) | inactive: 82%
65 | CN1CCN(C(=O)c2cnn(-c3cccc(Cl)c3)c2C2CCN(C(=O)OC(C)(C)C)CC2)CC1 | inactive: 80%
66 | COc1cccc(CNC(=O)c2ccc3c(c2)N(Cc2ccc(C(F)(F)F)cc2)C(=O)c2ccccc2S3)c1OC | inactive: 149%
67 | O=C(NCc1ccco1)c1c[nH]c2ccc(S(=O)(=O)Nc3ccc(F)cc3F)cc2c1=O | inactive: 81%
68 | Cc1nn(-c2ccccc2)c2c1N(CCCC(=O)NCc1ccc(Cl)cc1)C(=O)CS2 | inactive: 69%
69 | CCCCNc1nc2c(S(=O)(=O)c3ccc(Cl)cc3)nnn2c2ccsc12 | inactive: 89%

Row | Compound | survival
70 | CC(C)(C)c1ccc(S(=O)(=O)c2cnc(SCC(=O)Nc3ccc(F)c(Cl)c3)[nH]c2=O)cc1 | inactive: 73%
71 | CCOc1ccc(NC(=O)Cc2ccc(NC(=O)N3CCCCc4ccccc43)cc2)cc1 | inactive: 75%
72 | O=C(CN(C(=O)Cn1nnc(-c2cccs2)n1)c1ccc2c(c1)OCCO2)NCC1CCCO1 (centres undefined) | inactive: 95%
73 | COc1ccc(-c2nnc(SCC(=O)NCc3ccccc3)nc2-c2ccc(OC)c(OC)c2)cc1OC | inactive: 89%
74 | Cc1ccc(CN(Cc2ccco2)C(=O)COc2ccc(Cl)cc2Cl)cc1 | inactive: 117%
75 | O=C(O)CN1C(=O)S/C(=C\c2ccccc2)C1=O | inactive: 117%
76 | CCOc1ccccc1CNC(=O)CN(c1ccc(C)cc1)S(=O)(=O)N(C)C | inactive: 65%
77 | O=C1CCCCC(=O)c2ccccc2N1 | inactive: 99%
78 | CCOC(=O)c1cc(-c2ccc(F)cc2)n(CC(=O)NCc2ccc(OC)cc2)c1C | inactive: 71%
79 | COC(=O)c1ccc([C@H]2Nc3ccc(S(=O)(=O)Nc4ccc(C)cc4)cc3[C@H]3C=CC[C@H]32)cc1 | inactive: 73%
80 | Brc1ccc(-c2nnc3sc(CN4CCCCC4)cn23)cc1 | inactive: 80%
81 | Cc1ccccc1-c1nnc(CN2CCN(c3cccc(C)c3C)CC2)o1 | inactive: 62%
82 | CCCN1C(=O)c2[nH]nc(-c3ccccc3O)c2C1c1cccc(OCc2ccccc2)c1 (centres undefined) | inactive: 42%
83 | CCOc1ccccc1NC(=O)CSc1nnc(N)s1 | inactive: 94%
84 | Cc1ccc(NC(=O)CSc2nnc(C)n3c2cc2sccc23)c(C)c1 | inactive: 84%
85 | COc1cccc(NC(=O)CSc2nc3c([nH]c4ccccc43)c(=O)n2-c2ccccc2)c1 | inactive: 67%
86 | CC(C)(C)NC(=O)c1cnn(-c2ccccc2)c1C1CCN(C(=O)OC(C)(C)C)CC1 | inactive: 74%
87 | Cc1ccc(CSc2ccc(-c3cccs3)nn2)cc1 | inactive: 90%
88 | O=C(Cn1ncc2c3ccccc3n(Cc3ccccc3F)c2c1=O)NC1CCCCCC1 | inactive: 89%
89 | O=C(NCc1ccccc1Cl)c1cc2c(s1)-c1ccccc1SC2 | inactive: 74%

From PubChem BioAssay AID463173 (ICCB-Longwood Screening Facility, Harvard Medical School, 2010)
